Measurements as given in PubChem BioAssay AID624296 (National Center for Advancing Translational Sciences (NCATS), 2012).
Hit rate of the full screen: of about 350,000 compounds, about 9,900 (2.8%) were called active. The inconclusive results got no clear call from the source; some entries with a clear call stand among them for comparison. The call rests on the fitted dose curve; in most records, active means well fitted activation curve with a large enough effect; inconclusive means small, poorly fitted or top-dose-only effect; inactive means no such curve, though single readings can be large or run the other way. Potencies of inconclusive entries are left out as doubtful fits.
Potency means the concentration at half of the fitted maximal effect; tags describe the fitted curve by direction and shape.

Assay: A quantitative high throughput screen for small molecules that induce DNA re-replication in MCF 10a normal breast cells. Further: nearly all actives have a fitted effect of over 50% in size. On activity, positive = re-replication: % of control where 0% means no effect.
Details: MCF 10A DNA re-replication, Hoechst nuclear intensity, 48 h; activity, positive = re-replication: at 46.1 µM (top of the series)
With Cc1c(NC(=O)CN(c2ccccc2)S(=O)(=O)c2ccc(F)cc2)c(=O)n(-c2ccccc2)n1C the “activity, positive = re-replication” value was inactive: -5.54%. For Cc1nn(-c2ccccn2)c2c1C(=O)CC(C)(C)C2N=[N+]=[N-] (configuration not stated), the Potency was inconclusive [activator, partial curve, poor fit]. With COc1ccccc1NC(=O)Cn1nnc(C(=O)NCc2cccs2)c1N the Potency was active: 1.16 µM. With COC(=O)c1ccc(Cn2nnc3c(=O)[nH]c(C4CCN(S(=O)(=O)c5cc(C)ccc5C)CC4)nc32)cc1 the “activity, positive = re-replication” value was inactive: 5.38%. For Nc1ccc(-c2nc3ccc([N+](=O)[O-])cc3[nH]2)cc1, the “activity, positive = re-replication” value was inactive: -7.22%. For O=C(COc1ccccc1Br)N1CCN(c2ccccc2)CC1, the “activity, positive = re-replication” value was inactive: 14.1%. With c1ccc(CNc2ncnc3ccccc23)cc1 the Potency was “inactive”. In the case of CC(C)c1csc(CN2CCC(CCC(=O)NCC3CCCO3)CC2)n1 (configuration not stated), the Potency is reported as inconclusive [activator, single point]. With O=C(NC(=S)Nc1ccccc1C(=O)O)c1ccc2ccccc2c1 the “activity, positive = re-replication” value was inactive: 5.16%. In the case of N=c1n(Cc2ccccc2)c2ccccc2n1CC(O)COc1ccccc1 (configuration not stated), the Potency is reported as active: 25.9 µM. With COc1ccccc1C(=O)NCc1ccco1 the “activity, positive = re-replication” value was inactive: 12.5%. For CCCn1c(SCC(=O)N2c3ccccc3Sc3ccccc32)nc2ccccc21, the Potency was inconclusive [activator, partial curve]. In the case of CSc1nc(Oc2ccc(F)cc2)c2ccccc2n1, the Potency is reported as inconclusive [activator, partial curve, poor fit]. In the case of COCCNC(=S)Nc1ccc2nc(N3CCOCC3)cc(C)c2c1, the “activity, positive = re-replication” value is reported as inactive: -8.46%. With COc1cc(NC(=O)c2ccco2)c(OC)cc1NC(=O)Nc1cccc(Cl)c1 the Potency was inconclusive [activator, partial curve, poor fit]. With Cc1cccc(Oc2cc([N+](=O)[O-])cc3c2C(=O)Nc2ccccc2O3)c1 the Potency was inconclusive [activator, single point]. With C#CCOCCOCCOCCNc1nc(N2CCN(C(=O)CCCCCCCCCCNC(=O)[C@H](CCCCN)n3cc(C)nn3)CC2)nc(N2CCN(C(=O)CCCCCCCCCCNC(=O)[C@H](CCCN=C(N)N)n3cc(C[C@@H](C)CC)nn3)CC2)n1 the Potency was inconclusive [activator, single point]. With OCCN1CCN(CC(O)COCCOc2ccc(Br)cc2)CC1 (configuration not stated) the Potency was inconclusive [activator, single point]. In the case of O=C(Cn1cnc(Cl)c1Cl)c1ccc(F)cc1, the Potency is reported as inconclusive [activator, single point]. In the case of CSc1cccc(NC(=S)N(CCN(C)C)C(C)c2ccccn2)c1 (configuration not stated), the Potency is reported as inconclusive [activator, single point]. For O=C(Nc1ccc(Br)cc1)c1ccc2ncsc2c1, the Potency was inconclusive [activator, partial curve, poor fit]. For CCCCCOc1ccc(C(=O)C(c2ccccc2)N2CCOCC2)cc1 (configuration not stated), the Potency was inconclusive [activator, single point]. With Cc1cc(C)n(CCC(=O)N/N=C/c2ccc(O)cc2O)n1 the Potency was inconclusive [activator, single point]. With COc1ccc(NC(=O)C2CCC(C(C)(C)C)CC2)cc1S(=O)(=O)N1CCOCC1 (configuration not stated) the “activity, positive = re-replication” value was inactive: 17.7%. In the case of Cc1cc(C(=O)CCl)c(C)n1CCc1ccc(F)cc1, the Potency is reported as inconclusive [activator, single point]. In the case of Cc1ccc(O)c(C(=O)c2cnc3c(c2)COc2ccc(C)cc2-3)c1, the Potency is reported as inconclusive [activator, partial curve]. With c1ccc(N2CCN(c3nc(-c4cccs4)nc4ccccc34)CC2)cc1 the Potency was active: 23.1 µM. With NS(=O)(=O)c1ccc(NC(=S)N2CCN(C(=O)C3CCCO3)CC2)cc1 (configuration not stated) the “activity, positive = re-replication” value was inactive: -16.2%. For CC[C@H](C)[C@@H](CN[C@H](C)CNC)NCCC(c1ccccc1)c1ccccc1, the Potency was inconclusive [activator, full curve, poor fit]. For Nc1c(Cl)ncnc1N/N=C/c1cccnc1, the Potency was active: 3.66 µM. With C#CCOCCOCCOCCNc1nc(N2CCN(C(=O)[C@H]([C@@H](C)O)n3cc(CCCCN)nn3)CC2)nc(N2CCN(C(=O)[C@H](C)n3cc(CCCN=C(N)N)nn3)CC2)n1 the Potency was inconclusive [activator, full curve, poor fit]. In the case of C/C(CCN1CCc2nc(-c3ccccc3)c(-c3ccccc3)cc2C1)=N\O[C@@H](C)c1cc(-c2c(C)cc(C)cc2C)no1, the Potency is reported as inconclusive [activator, partial curve, poor fit]. With CC(=O)N(CCc1ccccc1)Cc1cc2ccc(C)c(C)c2[nH]c1=O the “activity, positive = re-replication” value was inactive: -3.94%. For CCOC(=O)N1CCN(S(=O)(=O)c2ccc(OCC)c3ccccc23)CC1, the Potency was inconclusive [activator, partial curve, poor fit]. In the case of C[C@@H](CN(C)C)CN1c2ccccc2Sc2ccccc21, the “activity, positive = re-replication” value is reported as inactive: -2.96% [at 20.6 µM]. For COc1ccc(C(=O)NCc2c(C)oc(C)c2C(=O)O)cc1, the Potency was inconclusive [activator, single point]. With COc1ccc(/C=C2\SC(=O)N(CCNC(=O)Cn3[nH]c(=O)c4ccccc4c3=O)C2=O)cc1 the Potency was inconclusive [activator, single point]. With COc1ccc(-c2cnnc(N/N=C/c3ccc(-c4ccc([N+](=O)[O-])cc4)o3)n2)cc1 the Potency was active: 1.03 µM. With C=CCOC(=O)C1=C[C@H](c2coc3ccccc3c2=O)C[C@H](OCCCCO)O1 the Potency was inconclusive [activator, single point]. In the case of CC(=O)Nc1ccc(CCCCc2ccccc2)cc1, the Potency is reported as inconclusive [activator, single point]. For Cc1ccc(C(=O)NCCC2=CCCCC2)cc1S(=O)(=O)N1CCCCC1, the Potency was inconclusive [activator, partial curve]. In the case of COc1ccc(-c2cc(=O)n(-c3nc4ccccc4[nH]3)[nH]2)cc1, the Potency is reported as active: 18.4 µM. For COc1cc(/C=C/C(=O)N2CCC=CC2=O)cc(OC)c1OC, the Potency was active: 8.2 µM. With O=c1cc(NCc2ccccc2)[nH]c(=O)[nH]1 the “activity, positive = re-replication” value was inactive: -1.43%. With N#CCc1c(C#N)c(N)nc(N2CCN(c3ccc(F)cc3)CC2)c1C#N the Potency was inconclusive [activator, partial curve, poor fit]. In the case of Cc1ccccc1C(=O)Nc1ccccc1Sc1ccccc1, the Potency is reported as inconclusive [activator, partial curve, poor fit]. For CCOC(=O)c1c(C)oc2cc(Br)c(OC(C)C(=O)OCC)cc12 (configuration not stated), the Potency was inconclusive [activator, single point]. In the case of O=C1C=C(NC2CCCC2)CC(c2ccccc2)C1 (configuration not stated), the Potency is reported as inconclusive [activator, partial curve, poor fit]. In the case of O=C1CC(c2ccccc2)CC(O)=C1C=NCc1ccccc1Cl (configuration not stated), the Potency is reported as inconclusive [activator, single point]. With CCOCC(=O)Nc1sc2c(c1C(=O)OCC)CCCC2 the Potency was inconclusive [activator, partial curve, poor fit]. In the case of Cc1ccc(-c2cc(C(=O)NCc3cnn(C)c3)c3cc(Br)ccc3n2)cc1, the Potency is reported as inconclusive [activator, partial curve, poor fit]. In the case of NC1=NC(=Nc2ccc(S(=O)(=O)N3CCOCC3)cc2)c2ccccc21, the Potency is reported as inconclusive [activator, single point]. For O=C(O)c1ccc(NC(=O)C2C3CCC(O3)C2C(=O)O)cc1 (configuration not stated), the Potency was inconclusive [activator, single point]. With COC(=O)C1N[C@@H]([C@@H](NC(=O)COc2ccccc2)C(=O)NCc2ccsc2)SC1(C)C (some centres not stated) the Potency was inconclusive [activator, partial curve, poor fit]. For Cc1ccc(NC(=O)C(C)OC(=O)COc2cccc(C(F)(F)F)c2)cc1 (configuration not stated), the “activity, positive = re-replication” value was inactive: -0.753%. For CCOC(=O)Cc1cc(=O)n2[nH]c(C)c(C#N)c2n1, the Potency was inconclusive [activator, single point]. With COc1cc(OC)cc(C(=O)Nc2ccccc2C(=O)NCc2cccnc2)c1 the Potency was inconclusive [activator, single point]. For CC(C)Nc1nc(N)c(C(=O)C23CC4CC(CC(C4)C2)C3)s1, the Potency was active: 23.1 µM. For Cc1nn(C)c(Cl)c1CN1CCCC(C(=O)Nc2ccc(-c3cscn3)cc2)C1 (configuration not stated), the Potency was inconclusive [activator, single point]. In the case of CCOc1cc(/C=C/c2nc3cc(C)c(C)cc3s2)ccc1OCC(=O)N1CCOCC1, the Potency is reported as active: 13 µM. For C=CCn1c(=O)c2ccccc2n2c(SCC(=O)c3ccccc3)nnc12, the “activity, positive = re-replication” value was inactive: 9.56%. For CC(C)(C)OC(=O)[C@H](Cc1ccccc1)NC(=O)c1nc[nH]c1C(=O)N1CCc2ccccc2C1, the Potency was inconclusive [activator, full curve, poor fit]. For Cc1cc(NC(=S)NC(=O)C2CC2)ccc1Br, the Potency was inconclusive [activator, single point]. In the case of Cc1cc(S(=O)(=O)NCc2ccco2)c(C)cc1Cl, the Potency is reported as inconclusive [activator, single point]. With O=C(O)CCCc1nc(-c2ccccc2)no1 the Potency was inconclusive [activator, single point]. For NS(=O)(=O)c1cccc(NC(=O)COC(=O)CC2CC3CCC2C3)c1 (configuration not stated), the Potency was inconclusive [activator, single point]. With CCN(CC(=O)Nc1ccc2c(c1)OCCO2)C(=O)CCOc1ccccc1 the Potency was inconclusive [activator, single point].
